Data: ChEMBL document CHEMBL4888484, “Replenishing the malaria drug discovery pipeline: Screening and hit evaluation of the MMV Hit Generation Library 1 (HGL1) against asexual blood stage Plasmodium falciparum ,using a nano luciferase reporter read-out” (2022)
In all, about 150,000 compounds went through this assay and about 540 (0.36%) showed an effect of 50% or more. This is one part of the list.

What follows are compounds tested on Plasmodium falciparum (assay: Primary screen in NF54 nanoGlo assay, in single point, at 2uM, 72h; a lower Z score goes with more inhibition). Conditions: timepoint 72 hour.
Type: functional, Erythrocyte
In the case of `Brc1ccc2oc(N3CCC(c4ncc[nH]4)CC3)nc2c1`, the “% Inhibition” value is reported as -3% and the Z score is reported as 0.66.
For `O[C@H](COCc1ccco1)CN1CCN(c2ncccn2)CC1`, the “% Inhibition” value was 12% and the Z score was -1.49.
For `CCN(CC(N)=O)C(=O)C#Cc1ccccc1`, the “% Inhibition” value was 0% and the Z score was -0.02.
`CC(C(=O)NCC(NC(=O)C(C)C1CC1)C(F)(F)F)C1CC1` (stereo not given) was tested, and the “% Inhibition” value was -12% and the Z score was 1.56.
For `CCc1ccc(NCC(=O)NC(N)=O)c(C(=O)OC)c1`, the “% Inhibition” value was -9% and the Z score was 1.11.
With `Cc1noc(CCNC(=O)N(Cc2c(F)cccc2F)C2CC2)n1` the “% Inhibition” value was -8% and the Z score was 1.1.
`CC(C(C)S(C)(=O)=O)N(C)C(=O)Cc1ccc(N)cc1` (stereo not given) was tested, and the “% Inhibition” value was -10% and the Z score was 1.05.
For `CCNc1ncc(C(=O)N2C[C@@H]3NC(=O)CN(C4CC4)C(=O)CCc4ccc(c(OC)c4)Oc4cccc(c4)CO[C@H]3C2)cn1`, the “% Inhibition” value was 9% and the Z score was -1.66.
For `O=C1CC2(CCN(C(=O)[C@@H]3CCCO3)CC2)CN1Cc1ccc(F)c(F)c1`, the “% Inhibition” value was -3% and the Z score was 0.5.
With `Cc1cc(NC(=O)c2ccc(-c3ccccc3)cc2)n(C)n1` the “% Inhibition” value was 11% and the Z score was -1.64.
For `Cc1cccc(C(=O)N(CN2CCCC2=O)c2cccc(Cl)c2)c1`, the “% Inhibition” value was -7% and the Z score was 1.12.
In the case of `COc1ccc(-c2ccc(N3CCN(C(=O)CN(CCN4CCOCC4)C(=O)c4ccccc4F)CC3)nn2)cc1OC`, the “% Inhibition” value is reported as 5% and the Z score is reported as -0.55.
For `CC(=O)N1CCCN(C(=O)c2cc3c(C)nn(C)c3s2)CC1`, the “% Inhibition” value was 8% and the Z score was -0.98.
In the case of `O=S(=O)(Cc1ccccc1)N1CCC(OCCOc2cccnc2)CC1`, the “% Inhibition” value is reported as -4% and the Z score is reported as 0.64.
With `O=C(NCC1(Cn2cccn2)CC1)c1ccc(-c2cnc(=O)[nH]c2)cc1` the “% Inhibition” value was -2% and the Z score was 0.26.
For `CNc1ncc(C(=O)N2CCC[C@]3(CCC(=O)N(C4CCCC4)C3)C2)cn1`, the “% Inhibition” value was -3% and the Z score was 0.56.
For `CC(C)n1nccc1NC(=O)c1cc(C2CC2)[nH]n1`, the “% Inhibition” value was 3% and the Z score was -0.58.
For `N#Cc1ccc(N2CCC[C@H](S(=O)(=O)NC3CCCC3)C2)c(F)c1`, the “% Inhibition” value was 4% and the Z score was -0.43.
`CCCCCN(C)c1ccc(F)cc1CNCCC(=O)N(C)C` was tested, and the “% Inhibition” value was -4% and the Z score was 0.51.
With `O=C(NC1CCCC1O)C(F)(F)c1ccccn1` (stereo not given) the “% Inhibition” value was -10% and the Z score was 0.93.
In the case of `CC(C)C[C@H](NCc1nc(N(C)C)no1)c1cccs1`, the “% Inhibition” value is reported as -13% and the Z score is reported as 1.57.
For `COC(=O)N(C)CCCC(=O)Nc1cn(-c2cc(C)cc(F)c2)nn1`, the “% Inhibition” value was 10% and the Z score was -1.12.
In the case of `O=C(NCc1ncc[nH]1)c1ccc(S(=O)(=O)N[C@H]2CCOC2)cc1`, the “% Inhibition” value is reported as -11% and the Z score is reported as 1.46.
`Cc1cc(C(=O)NC[C@H](O)c2cccn2C)no1` was tested, and the “% Inhibition” value was -21% and the Z score was 3.52.
For `O=C(NC1CCCCC1)c1ccc2c(c1)N(C(=O)c1ccc(F)cc1)CC2`, the “% Inhibition” value was -4% and the Z score was 0.44.
For `CCCc1cncnc1N1CCC(NC2Cc3ccccc3C2)CC1`, the “% Inhibition” value was -13% and the Z score was 2.21.
In the case of `CCN(CC)Cc1cn(C2CCN(c3ncnc4[nH]cnc34)CC2)nn1`, the “% Inhibition” value is reported as -6% and the Z score is reported as 1.03.
With `CC(=O)N1CC2=Nc3cccc4c3c(cn4C(C)C)[C@H](c3ccc(OCCN4CCCC4=O)cc3)C2=C1O` the “% Inhibition” value was -7% and the Z score was 1.03.
In the case of `Cc1cc(-c2noc(C3CCOC(C)C3)n2)cc(N)n1` (stereo not given), the “% Inhibition” value is reported as 10% and the Z score is reported as -1.15.
`Cc1cc(=O)c(C(=O)N(C)[C@@H](C)c2ccco2)cn1C1CC1` was tested, and the “% Inhibition” value was 1% and the Z score was -0.13.
For `CC(C)(C)NCCOCCOc1cccc(Cl)c1Cl`, the “% Inhibition” value was -8% and the Z score was 1.57.
For `CCC(C)C(=O)NCC1(NC(=O)C(C)CC)CCOCC1` (stereo not given), the “% Inhibition” value was -10% and the Z score was 0.82.
`CC[C@H]1CN(Cc2ccc(CN(C)S(C)(=O)=O)o2)CCN1C(C)C` was tested, and the “% Inhibition” value was -7% and the Z score was 0.63.
With `Cc1ccsc1C(=O)Nc1cccnc1-n1cccn1` the “% Inhibition” value was 6% and the Z score was -0.82.
`CCOc1ccc(C(=O)N2CCC3(CC2)N(CCOC)C(=O)CS3(=O)=O)cc1` was tested, and the “% Inhibition” value was -12% and the Z score was 1.76.
`Cc1cc(-c2cc(N3CCCC3)nc(N)n2)[nH]n1` was tested, and the “% Inhibition” value was -23% and the Z score was 2.97.
For `O=C(NCC1(O)CCCC1)C1CCCCC1`, the “% Inhibition” value was -22% and the Z score was 3.75.
In the case of `CN(Cc1cnn(C)c1)c1ccc(C(=O)NCC[C@H]2CCCCN2C)cn1`, the “% Inhibition” value is reported as -6% and the Z score is reported as 1.24.
With `Cc1ccc(CNC(=O)[C@]2(C)CN(S(=O)(=O)c3ccccc3)CC(=O)N2Cc2ccc(C)o2)cc1` the “% Inhibition” value was -9% and the Z score was 1.18.
`CN1CCC2CC[C@H](C1)N2C(=O)c1csc2ccccc12` was tested, and the “% Inhibition” value was -1% and the Z score was 0.09.
In the case of `Cn1ncc2c(N3CCNc4ccccc4C3)ncnc21`, the “% Inhibition” value is reported as 0% and the Z score is reported as -0.04.
With `CCCn1ncc(C)c1NC(=O)C[C@H](C)n1cccn1` the “% Inhibition” value was 1% and the Z score was -0.09.
For `CCc1nn(C)c(Cl)c1C(=O)Nc1cccc(-c2ccc3c(c2)OCCO3)n1`, the “% Inhibition” value was 4% and the Z score was -0.6.
With `CCCS(=O)(=O)N1CCc2cc3cccc(C)c3nc21` the “% Inhibition” value was 6% and the Z score was -0.7.
In the case of `COc1ccccc1NC(=O)CN1CCC2(CC1)CNC(=O)O2`, the “% Inhibition” value is reported as -14% and the Z score is reported as 1.66.
In the case of `C[C@H](O)CNC(=O)c1ccc(OC2CCOCC2)nc1`, the “% Inhibition” value is reported as -1% and the Z score is reported as 0.27.
In the case of `Nc1ncnc(NCc2ccccc2)n1`, the “% Inhibition” value is reported as 0% and the Z score is reported as 0.05.
In the case of `C[C@@H](CC(=O)NC1(c2c(F)cccc2F)COC1)c1ccco1`, the “% Inhibition” value is reported as -7% and the Z score is reported as 0.84.
In the case of `Cc1ccc2c(c1)C(NC(=O)Cn1cc(S(N)(=O)=O)cn1)C(C)C2` (stereo not given), the “% Inhibition” value is reported as -15% and the Z score is reported as 2.42.
For `OCc1ccnc(N2CCCCCC2)n1`, the “% Inhibition” value was -2% and the Z score was 0.42.
In the case of `O=C(C[C@@H]1O[C@H](CNCc2ccc(F)cc2)[C@@H](O)[C@H]1O)Nc1ccccc1`, the “% Inhibition” value is reported as 34% and the Z score is reported as -3.81.
With `COc1cc(-c2cc(N)nc(N)n2)c(Cl)cn1` the “% Inhibition” value was 11% and the Z score was -1.48.
In the case of `Cc1cnc(-c2nc3c([nH]2)CCCNC3=O)cn1`, the “% Inhibition” value is reported as -1% and the Z score is reported as 0.11.
With `CCN(CCC#N)C(=O)CNC(=O)c1ccc(Br)cc1` the “% Inhibition” value was 14% and the Z score was -1.51.
`CC(C)(C)n1ncc(-c2ccccc2)c1NC(=O)CN1CCOC1=O` was tested, and the “% Inhibition” value was -9% and the Z score was 1.68.
